The source gives no read counts; variants with many changes may rest on few reads.

B1: OR4K15 (parent)
chain: GUUAACGGUCAUAGGCCAUGGAAACUAGGAGCACCAUUUCGCUGCCAGUGAAGAAAUGAACAAAGAAAAUCUGGGCCAGGCAGGCAUCAAAAGAAAUAGUCUUGCGCUCAACCAGAAAGUCUGUAAUCAUUUUAAGGGUA

The variants in this data set derive from B1. Description: self-cleavage, relative activity (ratio to wild type); higher = more cleavage; in vitro, sequencing; the parent is a self-cleaving ribozyme.
For the variant A24G G75A U102C, the self-cleavage was 0.03. As for A24U A62G A110G, the self-cleavage was found to be 0.21. On to A24G A54G A67G A68C, for which the self-cleavage is 0.95. Regarding A24G A33G U39C U49A, the self-cleavage was 1.18. With A23G U26C A30G A52G A68G, the self-cleavage came out at 0.32.

With A24G U49C A94U, the self-cleavage turned out to be 2.24. As to A23G A98U U100C, the self-cleavage came to 1.46.

Take A23G A94G U102C: the self-cleavage amounted to 1.42. The same measure for A23G U57C A96G: 0.84; for A24C A55U U72C A117U: 0.21. Regarding A24G G44A A66G A134U, the self-cleavage came out at 1.53.

As to A24G U39C A89C, the self-cleavage was 0.9. In the case of A24G A52U A69G, the self-cleavage came out at 0.26.

On to A24U A78U U108C, for which the self-cleavage amounted to 0. The same measure for A23G U26G A126G U130C: 1.15; for A23G U39A A63U A90G A95G: 1.2; for A24G A60G A89U: 1.06. Turning to A24G A47U U72C, the self-cleavage is 0.24. As for A23G C101A U131C, the self-cleavage is 0.09. For the variant A24U A64G A117G U130C, the self-cleavage worked out at 0.7. As for A24C A33U A110G, the self-cleavage stood at 0.1. With A24G G79U G104A, the self-cleavage was determined as 0.03. In the case of A23U U100C A111G A117U, the self-cleavage amounted to 0.04. Take A24G C88U A96G: the self-cleavage came out at 1.06.

For the variant A23G U38C U70C U100C U122C, the self-cleavage was found to be 1.27. In the case of A24U A52U U108C it was 0.02. The same measure for A24U A52G U102C A114C U130C: 0.01. On to A24G A64G G84C A116U U133C, for which the self-cleavage came out at 0.03. Consider A24G U49C U127C, for which the self-cleavage came out at 0.55. The same measure for A24U A66G A67G A110G A118U: 0.09; for A24G G80U A134G: 0.1; for A24G A67C U87C: 1.34.

Consider A24G A60G A86G U97C A98G, for which the self-cleavage came to 1.12. As for A23G G31C A52G U108C, the self-cleavage came to 0.05.

For the variant A24G C77U A91U, the self-cleavage worked out at 0.99. Regarding A24G A33G A95G A134G, the self-cleavage stood at 1.55. As to A24G A69G A135G U139C, the self-cleavage was found to be 1.73. On to A24C C25U A27G, for which the self-cleavage was determined as 1.43. Take A24C A68G A86G: the self-cleavage stood at 1.4. As for A24G G58U A86G A117U U132C, the self-cleavage is 0.68. As for A24G C35U A54G A118U A135G, the self-cleavage was determined as 0.4. As to A24G A54G A116G, the self-cleavage is 1.32. Turning to A24G A54U A91G A140G, the self-cleavage is 1.37. For the variant A24G A30G A69G A95G, the self-cleavage was 0.77. For the variant A23G U72C A129G, the self-cleavage was determined as 0.16. The same measure for A23G U38A U57A: 1.2; for A24G A54G A91G A134G: 1.11; for A24G A33G U37C U57C A63G: 0.56.

Turning to A24G C34U U43C A47G U102A, the self-cleavage is 0.2.

For the variant A23G U39A A55U A82G U122C A129C, the self-cleavage came to 0.04. Consider A23G G80C A95G A117G, for which the self-cleavage stood at 0.05. The same measure for A24G A95G A96G U97C A117U U120A: 0.69; for A24G A67G U72C A94U A110G: 0.07; for A23G U102A U124A: 0.18. With A23G U43C A59G A116G U127C, the self-cleavage amounted to 0.57. In the case of A23G U37C A63G A126U, the self-cleavage stood at 0.88.

With A24G A54G U108C A117G, the self-cleavage worked out at 0.02. In the case of A23G C32U A36G A98G C112U U122A, the self-cleavage turned out to be 0.01. The same measure for A24G A30G U43C: 0.72; for A23U A30G A47G A111G U130C: 0. The same measure for A24U A89G U97A A118G: 1.02; for A24G U38C U102C A118G: 1.34.

Turning to A24G C81U A95G, the self-cleavage was found to be 1.2.

Turning to A24G U39C U70C A82U, the self-cleavage turned out to be 0.33. For the variant A24G A55U A89G A96G, the self-cleavage was found to be 0.84. As to A24G U43C C85U A116U A126G, the self-cleavage stood at 0. Consider A23G U49C A60G G79A A94G, for which the self-cleavage was 0.09. A23G U38C A68G: the self-cleavage is 1.32. A24C A62G A68G: the self-cleavage was determined as 1.27. Regarding A23U A51U U133C, the self-cleavage was 1.71. For the variant A24G U38C A68G U131C, the self-cleavage was determined as 1.95.

As for A24G A56C A60G, the self-cleavage is 0.81.

For the variant A23G U43C U70C U108C U139A, the self-cleavage is 0.02. Regarding A23G U124C U132C, the self-cleavage was determined as 0.33.

As for A23U A62G A78G A111U, the self-cleavage is 0.04. On to A23U U26C U38C, for which the self-cleavage is 1.02. Take A23G G73A C105U: the self-cleavage turned out to be 0.04. Consider A24G A89G A95G U120C, for which the self-cleavage turned out to be 0.98.

As for A23G U43A A63G U122C, the self-cleavage was 0.93.

In the case of A23G G65A U100G, the self-cleavage was 1.21. In the case of A23G U57C A82G A117G, the self-cleavage was 0.26. As to A24G G31C A33G, the self-cleavage was 1.15. For A23U G79A U87C A94G, the self-cleavage amounted to 0.11. A24G U38C A47U A114G: the self-cleavage came out at 0.79.

The record behind these values is the RNAGym collection of RNA variant scans (doi:10.7554/elife.90254).
